Usually % Inhibition stands for the change of the read-out against control, counted positive when it falls.

Out of some 150,000 compounds screened, about 540 (0.36%) showed an effect of 50% or more. Some of the results follow.

The test concerns Plasmodium falciparum. The experiment in a line: Primary screen in NF54 nanoGlo assay, in single point, at 2uM, 72h; a lower Z score goes with more inhibition. The conditions noted are these: timepoint 72 hour. The class given is functional, Erythrocyte.
As for `C[C@H](NCCC(N)=O)c1cccc(Cl)c1`, the “% Inhibition” value is listed as -15% and the Z score turned out to be 2.39.

As to `NC(=O)CNC(=O)C1(Cc2cccc(Cl)c2)CCCC1`, the “% Inhibition” value is -14% and the Z score was 1.37.

Regarding `Cc1ccc(N2C[C@@H](C(=O)Nc3ccc(N4CCCC4=O)c(C)c3)CC2=O)cc1`, the “% Inhibition” value is given as 0% and the Z score worked out at 0.04.

`O=C(Nc1ccc(-n2cnnn2)cc1)c1cccc(S(=O)(=O)N2CCOCC2)c1`: the “% Inhibition” value is listed as 5% and the Z score is -0.67.

Consider `N#Cc1cccc(CN[C@@H]2CO[C@H](CNC(=O)C3CCCC3)[C@H]2O)c1`, for which the “% Inhibition” value is given as 25% and the Z score is -2.9.

Take `CN(C)S(=O)(=O)N(Cc1cccs1)Cc1cccs1`: the “% Inhibition” value was -6% and the Z score is 0.7.

`CCCCn1nc([C@H]2CCOC2)nc1-c1cc(C#N)c[nH]1`: the “% Inhibition” value is listed as -11% and the Z score came to 1.64.

Consider `COc1ccc(NC(=O)[C@H](C(C)C)N(Cc2ccc(Cl)cc2)C(=O)Cn2nnc3ccccc32)cc1`, for which the “% Inhibition” value is -1% and the Z score turned out to be 0.11.

Turning to `CN(CC(=O)Nc1ccc2c(c1)OCCO2)S(=O)(=O)c1c[nH]c(C(=O)N2CCCCC2)c1`, the “% Inhibition” value was determined as 4% and the Z score is on record as -0.4.

With `Cc1cc(C)cc(Cc2noc([C@@H]3CCCO3)n2)c1`, the “% Inhibition” value is 4% and the Z score is -0.66.

As to `CC(C)(C)CNC(=O)c1[nH]cnc1C(=O)N[C@H]1CC[C@H](O)CC1`, the “% Inhibition” value worked out at 14% and the Z score is -1.64.

Turning to `COc1ccc(/C=C/CN2C[C@H]3CCC[C@@H](C2)N(C)C3)cc1`, the “% Inhibition” value is listed as -11% and the Z score is given as 1.49.

Turning to `Cc1csc(NC(=O)C(=O)NCC2CC2)n1`, the “% Inhibition” value is listed as -11% and the Z score was found to be 1.56.

As to `CCCN1C[C@@H](Nc2nc(-c3cccnc3)nc3c2CCNC3)CC1=O`, the “% Inhibition” value was found to be 6% and the Z score is on record as -0.82.

Regarding `CC1(CC(F)F)CN(C(=O)c2nnc(-c3ccc(F)cn3)o2)C1`, the “% Inhibition” value is recorded as -14% and the Z score stood at 1.81.

Regarding `CCn1cc(CNc2cnccc2OC(C)(C)C)cn1`, the “% Inhibition” value amounted to 2% and the Z score is recorded as -0.23.

On to `Cc1nc(CN2CCOC[C@H]2c2nc[nH]n2)sc1C(C)(C)C`, for which the “% Inhibition” value is reported as -4% and the Z score worked out at 0.57.

Consider `CCC(=O)N1CCCN(C(=O)c2cc(C(C)C)on2)CC1`, for which the “% Inhibition” value is listed as -5% and the Z score is given as 0.67.

As for `NC(=O)[C@@H]1CN(Cc2ccc(-c3ccc(Cl)cc3)s2)CCO1`, the “% Inhibition” value is given as -11% and the Z score was 1.78.

In the case of `COC1CC(C(=O)N2CC3CC2(C(N)=O)C3)C1` (stereo unspecified), the “% Inhibition” value was 18% and the Z score is recorded as -2.25.

Consider `Cn1nc(C(=O)N2CC(C)(C)Oc3ccccc32)cc1OC(F)F`, for which the “% Inhibition” value turned out to be 6% and the Z score was -0.82.

With `Cc1ccc(-n2cc3c(c2-c2ccc(Cl)cc2)c(=O)n(-c2ccccc2)n3C)cc1`, the “% Inhibition” value was -11% and the Z score stood at 1.41.

As for `CCOCCNC(=O)C[C@]1(C(=O)NCCOCC)CCN(C(=O)OC(C)(C)C)C1`, the “% Inhibition” value is -5% and the Z score is reported as 0.7.

Regarding `CCOc1cc(-c2c(-c3ccccc3)ncn2Cc2c(C)n[nH]c2C)ccc1OC`, the “% Inhibition” value worked out at 12% and the Z score is listed as -1.59.

Consider `COc1cc(C(=O)NCC(=O)NCc2cccnc2OC)cc(OC)c1OC`, for which the “% Inhibition” value is listed as -4% and the Z score is 0.67.

With `CCN([C@H]1CCCc2cccnc21)S(=O)(=O)c1ccco1`, the “% Inhibition” value was -8% and the Z score is 1.18.

As for `CC(C)(CC(=O)O)CC(=O)Nc1cccc(Cl)c1C(N)=O`, the “% Inhibition” value is 1% and the Z score is -0.15.

`CCC(=O)N1CCC[C@H](C(=O)Nc2c(C(C)C)c(C)nc3ccccc23)C1`: the “% Inhibition” value was -3% and the Z score came to 0.44.

As for `CCc1nc2c(=O)n(CC(=O)NC3CCCC3)nc(C)c2s1`, the “% Inhibition” value was 10% and the Z score was -1.33.

Turning to `CC(=O)N(C)OC(=O)Nc1cccc(Cl)c1`, the “% Inhibition” value was -8% and the Z score is reported as 1.02.

For `O=C(NCCNC1CCCC(C(F)(F)F)C1)c1cccs1` (stereo unspecified), the “% Inhibition” value is on record as -11% and the Z score stood at 1.31.

On to `CN(C(=O)c1ccnc(C2CC2)n1)C1CCN(c2cnccn2)CC1`, for which the “% Inhibition” value is -18% and the Z score was 2.94.

Consider `C[C@@H]1CN(C(=O)CN2CCn3nc(Cc4ccccc4)cc3C2)C[C@H](C)O1`, for which the “% Inhibition” value is recorded as -8% and the Z score worked out at 1.2.

With `COC[C@@H]1[C@H](C(=O)Nc2cc(OC)ccc2OC)CCC(=O)N1C`, the “% Inhibition” value was -12% and the Z score worked out at 1.42.

With `CCc1ncc(C(=O)N(Cc2ccccc2)Cc2ncccc2C)cn1`, the “% Inhibition” value is listed as -2% and the Z score is 0.16.

With `Cc1nc([C@H]2CCCN2CC(O)COC2CCOCC2)cs1` (stereo partly specified), the “% Inhibition” value is on record as -4% and the Z score came out at 0.67.

Turning to `Cc1cncc(C(=O)NCc2nnc(C(C)(C)C)s2)c1O`, the “% Inhibition” value was determined as 14% and the Z score was -1.8.

`O=C(c1ccc2[nH]ccc2c1)N1C[C@H]2CC[C@@H](O)[C@H]2C1`: the “% Inhibition” value was -13% and the Z score is recorded as 1.25.

For the compound `Cc1nnc2ccc(N3CCCC3CC(O)c3ccc(F)cc3)nn12` (stereo unspecified), the “% Inhibition” value is -13% and the Z score stood at 1.53.

For the compound `COc1ccc(N2CCN(C(=O)CN(CC3CCC3)CC(F)(F)F)CC2)cc1`, the “% Inhibition” value was -3% and the Z score is 0.39.

`CC1CCN(C(=O)Nc2cccc3c2OCCC3)CC1C(=O)O` (stereo unspecified): the “% Inhibition” value is recorded as 0% and the Z score is reported as -0.03.

Regarding `Cc1cccc(CCn2c(=O)c3ccccc3n(CC(=O)NCc3ccco3)c2=O)c1`, the “% Inhibition” value is -8% and the Z score is 1.3.

In the case of `O=C(N[C@H]1CCN2C(=O)[C@@H](Cc3ccccc3)NC(=O)[C@H]12)c1cnccn1`, the “% Inhibition” value turned out to be 13% and the Z score was -1.53.

As to `COc1ccc(-c2cn3c(C(=O)N(C)CCc4ccccn4)csc3n2)cc1F`, the “% Inhibition” value is -14% and the Z score amounted to 1.96.

Consider `Cc1nc(C(C)C)sc1[C@H](C)N(C)Cc1nnsc1Cl`, for which the “% Inhibition” value was -10% and the Z score is reported as 1.06.

Turning to `Cc1cccc(OC2CCCCC2NC(=O)c2c[nH]nn2)c1` (stereo unspecified), the “% Inhibition” value is listed as -11% and the Z score is reported as 1.76.

With `CCC1(CC)C(=O)N(C)C(=O)N/C1=N\Nc1ccccc1`, the “% Inhibition” value is given as 29% and the Z score is on record as -3.73.

`Cn1c(C(=O)NCCCn2ccnc2)cc2oc(-c3ccccc3Cl)cc21`: the “% Inhibition” value came to 5% and the Z score is given as -0.83.

On to `Cc1c(-c2nn3c(Cc4ccccc4)nnc3s2)nnn1-c1ccc(Cl)cc1`, for which the “% Inhibition” value is reported as -7% and the Z score turned out to be 1.12.

With `COC(=O)c1ccc(F)c(NCC(=O)N2CCCCCCC2)c1`, the “% Inhibition” value is listed as -6% and the Z score is listed as 0.76.

As for `CC(C)(C)c1ccc(Oc2nc3ccccc3nc2N2CCCCCC2)cc1`, the “% Inhibition” value is recorded as -9% and the Z score is recorded as 1.03.

For `O=C(O)C1C2C=CC(CC2)C1C(=O)N1CCC(Cc2ccccc2)CC1` (stereo unspecified), the “% Inhibition” value was -44% and the Z score is recorded as 5.22.

As for `Cn1c(CCc2ccco2)nnc1N1CCC(OC2CCC2)CC1`, the “% Inhibition” value is -10% and the Z score was 1.86.

For the origin of these results see ChEMBL document CHEMBL4888484, “Replenishing the malaria drug discovery pipeline: Screening and hit evaluation of the MMV Hit Generation Library 1 (HGL1) against asexual blood stage Plasmodium falciparum ,using a nano luciferase reporter read-out” (2022).
